{"source": "the supplement of paper PMC10126150", "note": "Values marked as one replicate rest on one cluster of the flow cell; about a third of the high ones do not repeat.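 Further: ATP exposure 15 min at 22 °C before imaging.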"}
{"tested_on": "ATP", "assay": "switch fluorescence ratio, 500 uM ATP over buffer (Cy3 cluster intensity, sum of 5 cycles each) (fold (ratio)); higher = stronger signal-on switching upon ATP binding; sequences stand for … in TCGTCGGCAGCGTCAGATGTGTATAAGAGACAGTTTTTTTTTTTTTTTTTTTTTTTTT…TC", "settings": "aptamer strand: ATP DNA aptamer (quencher-CACCTGGGGGAGTATTGCGGAGGAAGG + anchor), 100 nM annealed; ATP concentration: 500 uM; one replicate", "method_in_brief": "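Clusters carrying Cy3-labelled switching strands on a modified Illumina MiSeq flow-cell were annealed to 100 nM quencher-labelled ATP aptamer and imaged in selection buffer. They were imaged again after 15 min with 500 uM ATP at 22 °C, over five buffer/ATP cycles with NaOH stripping and re-annealing in between. For each cluster, the fluorescence ratio is the summed Cy3 intensity of the target cycles divided by that of the buffer cycles, averaged per switch-domain sequence. Clusters outside 100-1000 RFU were left out.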"}
{"sequence": "TAGGCGAAGC", "switch fluorescence ratio": 1.01}
{"sequence": "TAGGCGAGG", "switch fluorescence ratio": 0.973}
{"sequence": "TAGGCGAGGT", "switch fluorescence ratio": 1}
{"sequence": "TAGGCGCAAC", "switch fluorescence ratio": 1.53}
{"sequence": "TAGGCGCCCG", "switch fluorescence ratio": 0.98}
{"sequence": "TAGGCGGCTT", "switch fluorescence ratio": 1}
{"sequence": "TAGGCTATCG", "switch fluorescence ratio": 1.07}
{"sequence": "TAGGCTCTGC", "switch fluorescence ratio": 1.1}
{"sequence": "TAGGCTGGTG", "switch fluorescence ratio": 1.01}
{"sequence": "TAGGGACACG", "switch fluorescence ratio": 1.04}
{"sequence": "TAGGGACCCC", "switch fluorescence ratio": 1.03}
{"sequence": "TAGGGAGAAC", "switch fluorescence ratio": 1.05}
{"sequence": "TAGGGCCCGC", "switch fluorescence ratio": 1.03}
{"sequence": "TAGGGCGTCA", "switch fluorescence ratio": 1.02}
{"sequence": "TAGGGGCGCC", "switch fluorescence ratio": 1.01}
{"sequence": "TAGGGGGCA", "switch fluorescence ratio": 0.991}
{"sequence": "TAGGGGTCAT", "switch fluorescence ratio": 0.982}
{"sequence": "TAGGGTTATA", "switch fluorescence ratio": 1.01}
{"sequence": "TAGGTAAGA", "switch fluorescence ratio": 0.968}
{"sequence": "TAGGTAGGCG", "switch fluorescence ratio": 1.01}
{"sequence": "TAGGTATTGG", "switch fluorescence ratio": 0.988}
{"sequence": "TAGGTCCGGG", "switch fluorescence ratio": 1}
{"sequence": "TAGGTGAT", "switch fluorescence ratio": 1}
{"sequence": "TAGGTGCGTC", "switch fluorescence ratio": 0.965}
{"sequence": "TAGGTGGATG", "switch fluorescence ratio": 1.03}
{"sequence": "TAGGTGTACT", "switch fluorescence ratio": 1.04}
{"sequence": "TAGGTTCTA", "switch fluorescence ratio": 0.992}
{"sequence": "TAGTACGCA", "switch fluorescence ratio": 1.23}
{"sequence": "TAGTACGCGT", "switch fluorescence ratio": 1.02}
{"sequence": "TAGTAGGAG", "switch fluorescence ratio": 0.995}
{"sequence": "TAGTAGGTAA", "switch fluorescence ratio": 1.01}
{"sequence": "TAGTATGACT", "switch fluorescence ratio": 0.951}
{"sequence": "TAGTATGTTA", "switch fluorescence ratio": 0.99}
{"sequence": "TAGTCGACTA", "switch fluorescence ratio": 1.03}
{"sequence": "TAGTCTATCT", "switch fluorescence ratio": 1.01}
{"sequence": "TAGTCTATTC", "switch fluorescence ratio": 1.01}
{"sequence": "TAGTCTTGGA", "switch fluorescence ratio": 1.02}
{"sequence": "TAGTGCCCGA", "switch fluorescence ratio": 1}
{"sequence": "TAGTGGGACC", "switch fluorescence ratio": 0.989}
{"sequence": "TAGTGGGACT", "switch fluorescence ratio": 1.04}
{"sequence": "TAGTGGTACG", "switch fluorescence ratio": 0.966}
{"sequence": "TAGTGTCTTG", "switch fluorescence ratio": 0.988}
{"sequence": "TAGTGTTTTG", "switch fluorescence ratio": 0.969}
{"sequence": "TAGTTAAGAA", "switch fluorescence ratio": 0.981}
{"sequence": "TAGTTACATA", "switch fluorescence ratio": 1}
{"sequence": "TAGTTACTAT", "switch fluorescence ratio": 0.983}
{"sequence": "TAGTTATAAG", "switch fluorescence ratio": 0.983}
{"sequence": "TAGTTATTCG", "switch fluorescence ratio": 1.03}
{"sequence": "TAGTTCAAGA", "switch fluorescence ratio": 0.971}
{"sequence": "TAGTTCCGT", "switch fluorescence ratio": 1.01}
{"sequence": "TAGTTGGGAA", "switch fluorescence ratio": 0.989}
{"sequence": "TAGTTGTGTT", "switch fluorescence ratio": 1}
{"sequence": "TAGTTTGACC", "switch fluorescence ratio": 1.03}
{"sequence": "TATAAAATAA", "switch fluorescence ratio": 1.06}
{"sequence": "TATAAAGGAG", "switch fluorescence ratio": 1.06}
{"sequence": "TATAAATAAA", "switch fluorescence ratio": 1.02}
{"sequence": "TATAAGAACA", "switch fluorescence ratio": 1.01}
{"sequence": "TATAATCAT", "switch fluorescence ratio": 0.985}
{"sequence": "TATAATGTCG", "switch fluorescence ratio": 1.09}
{"sequence": "TATAATTATA", "switch fluorescence ratio": 1.01}
{"sequence": "TATACAAAAA", "switch fluorescence ratio": 1.02}
{"sequence": "TATACCCGGT", "switch fluorescence ratio": 0.971}
{"sequence": "TATACCTGCA", "switch fluorescence ratio": 1.22}
{"sequence": "TATACGTCAG", "switch fluorescence ratio": 0.983}
{"sequence": "TATACTAATA", "switch fluorescence ratio": 0.998}
{"sequence": "TATACTCCGA", "switch fluorescence ratio": 1.03}
{"sequence": "TATACTCGGA", "switch fluorescence ratio": 1.03}
{"sequence": "TATAGATCGG", "switch fluorescence ratio": 1.03}
{"sequence": "TATAGCAAGG", "switch fluorescence ratio": 1.01}
{"sequence": "TATAGCAATC", "switch fluorescence ratio": 4.54}
{"sequence": "TATAGCACGG", "switch fluorescence ratio": 1}
{"sequence": "TATAGCGCAC", "switch fluorescence ratio": 1.13}
{"sequence": "TATAGCGTCC", "switch fluorescence ratio": 1.02}
{"sequence": "TATAGGGACC", "switch fluorescence ratio": 0.978}
{"sequence": "TATAGGGCCG", "switch fluorescence ratio": 0.994}
{"sequence": "TATAGGTAGG", "switch fluorescence ratio": 0.956}
{"sequence": "TATAGTACTG", "switch fluorescence ratio": 1.08}
{"sequence": "TATAGTCCAT", "switch fluorescence ratio": 0.999}
{"sequence": "TATATAAAC", "switch fluorescence ratio": 1.02}
{"sequence": "TATATAACGC", "switch fluorescence ratio": 1.01}
{"sequence": "TATATAGCGA", "switch fluorescence ratio": 1.03}
{"sequence": "TATATCGGAT", "switch fluorescence ratio": 1.02}
{"sequence": "TATATGCTTG", "switch fluorescence ratio": 1.02}
{"sequence": "TATATGTCAC", "switch fluorescence ratio": 1.05}
{"sequence": "TATATTTGCA", "switch fluorescence ratio": 0.985}
{"sequence": "TATCAAAACG", "switch fluorescence ratio": 1.04}
{"sequence": "TATCAATGGT", "switch fluorescence ratio": 0.986}
{"sequence": "TATCACCCCA", "switch fluorescence ratio": 1.05}
{"sequence": "TATCACTAAT", "switch fluorescence ratio": 0.988}
{"sequence": "TATCACTTGA", "switch fluorescence ratio": 1.04}
{"sequence": "TATCAGAAAA", "switch fluorescence ratio": 0.96}
{"sequence": "TATCAGAATT", "switch fluorescence ratio": 1.02}
{"sequence": "TATCAGACTG", "switch fluorescence ratio": 0.907}
{"sequence": "TATCAGAGAT", "switch fluorescence ratio": 1.01}
{"sequence": "TATCAGATTT", "switch fluorescence ratio": 1.01}
{"sequence": "TATCAGCGTA", "switch fluorescence ratio": 0.954}
{"sequence": "TATCAGTCG", "switch fluorescence ratio": 1.01}
{"sequence": "TATCAGTGGC", "switch fluorescence ratio": 0.971}
{"sequence": "TATCATCGTT", "switch fluorescence ratio": 0.99}
{"sequence": "TATCATGCTG", "switch fluorescence ratio": 1}
{"sequence": "TATCATGGAC", "switch fluorescence ratio": 1.04}
{"sequence": "TATCCGAGGA", "switch fluorescence ratio": 0.992}
{"sequence": "TATCCGGGCA", "switch fluorescence ratio": 1.08}
{"sequence": "TATCCTAGAG", "switch fluorescence ratio": 0.988}
{"sequence": "TATCCTGCAC", "switch fluorescence ratio": 1.23}
{"sequence": "TATCCTTACG", "switch fluorescence ratio": 1.14}
{"sequence": "TATCGAACCT", "switch fluorescence ratio": 2.14}
{"sequence": "TATCGATGCA", "switch fluorescence ratio": 0.982}
{"sequence": "TATCGATTG", "switch fluorescence ratio": 1.03}
{"sequence": "TATCGCACTC", "switch fluorescence ratio": 1.43}
{"sequence": "TATCGCTGCC", "switch fluorescence ratio": 1.12}
{"sequence": "TATCGGACC", "switch fluorescence ratio": 1.15}
{"sequence": "TATCGGGCGC", "switch fluorescence ratio": 0.991}
{"sequence": "TATCGTGGAC", "switch fluorescence ratio": 0.961}
{"sequence": "TATCGTTGGG", "switch fluorescence ratio": 0.966}
{"sequence": "TATCTATTGG", "switch fluorescence ratio": 0.962}
{"sequence": "TATCTCCTCC", "switch fluorescence ratio": 1.54}
{"sequence": "TATCTCTCTA", "switch fluorescence ratio": 1.01}
{"sequence": "TATCTGATTT", "switch fluorescence ratio": 1.02}
{"sequence": "TATCTGCGCT", "switch fluorescence ratio": 1.04}
{"sequence": "TATCTTCTTC", "switch fluorescence ratio": 1.05}
{"sequence": "TATCTTGAGA", "switch fluorescence ratio": 0.971}
{"sequence": "TATGACAGGC", "switch fluorescence ratio": 0.921}
{"sequence": "TATGACGAAT", "switch fluorescence ratio": 0.984}
{"sequence": "TATGACGATA", "switch fluorescence ratio": 1.04}
{"sequence": "TATGACTAAC", "switch fluorescence ratio": 1.1}
{"sequence": "TATGAGAATC", "switch fluorescence ratio": 1.03}
{"sequence": "TATGAGATCC", "switch fluorescence ratio": 1.03}
{"sequence": "TATGAGGCG", "switch fluorescence ratio": 0.947}
{"sequence": "TATGATACTA", "switch fluorescence ratio": 1}
{"sequence": "TATGATAGTG", "switch fluorescence ratio": 0.967}
{"sequence": "TATGATCGTC", "switch fluorescence ratio": 0.993}
{"sequence": "TATGATGATT", "switch fluorescence ratio": 1.31}
{"sequence": "TATGATGCCC", "switch fluorescence ratio": 1.01}
{"sequence": "TATGCATAGT", "switch fluorescence ratio": 0.999}
{"sequence": "TATGCCAAGG", "switch fluorescence ratio": 1.04}
{"sequence": "TATGCCAGGA", "switch fluorescence ratio": 0.958}
{"sequence": "TATGCCGAA", "switch fluorescence ratio": 0.95}
{"sequence": "TATGCCTATG", "switch fluorescence ratio": 0.98}
{"sequence": "TATGCGAAAT", "switch fluorescence ratio": 1.04}
{"sequence": "TATGCGGTG", "switch fluorescence ratio": 0.989}
{"sequence": "TATGCGTGTT", "switch fluorescence ratio": 0.971}
{"sequence": "TATGCTCTTA", "switch fluorescence ratio": 0.969}
{"sequence": "TATGCTGGCC", "switch fluorescence ratio": 0.936}
{"sequence": "TATGGACATC", "switch fluorescence ratio": 1.01}
{"sequence": "TATGGCGTCA", "switch fluorescence ratio": 0.998}
{"sequence": "TATGGCTTGA", "switch fluorescence ratio": 0.982}
{"sequence": "TATGGGAAAA", "switch fluorescence ratio": 0.937}
{"sequence": "TATGGGACAA", "switch fluorescence ratio": 1.06}
{"sequence": "TATGGTCTGG", "switch fluorescence ratio": 1}
{"sequence": "TATGGTGGC", "switch fluorescence ratio": 0.983}
{"sequence": "TATGGTTTGC", "switch fluorescence ratio": 1.01}
{"sequence": "TATGTAAAGC", "switch fluorescence ratio": 1.04}
